Among all 72,000 compounds or so, about 710 (0.99%) were called active. This list was built around the results that the source calls inconclusive (neither active nor inactive); the mix of calls is not that of the screen. Calls come from the whole dose curve; as a rule, active = well fitted inhibition curve with a large enough effect; inconclusive = small, poorly fitted or top-dose-only effect; inactive = no such curve, though single readings can be large or run the other way. Potencies of inconclusive entries are left out as doubtful fits.
assay: qHTS Assay for Inhibitors of the ERK Signaling Pathway using a Homogeneous Screening Assay; settings: HEK293-V1b, vasopressin-stimulated pERK AlphaScreen; activity, negative = inhibition: at 57.5 µM (top of the series) unless noted; note: nearly all actives have a fitted effect of over 55% in size
Description: qHTS Assay for Inhibitors of the ERK Signaling Pathway using a Homogeneous Screening Assay; note: nearly all actives have a fitted effect of over 55% in size
NIH Chemical Genomics Center [NCGC]
NIH Molecular Libraries Screening Centers Network [MLSCN]
Assay Submitter (PI): Dr. Wei Zheng, NCGC/NIH
The Ras/extracellular-signal-regulated kinase (ERK) mitogen activated protein (MAP) kinase signaling pathway (ERK1/2 cascade) plays is a key role in transmitting signals from the cell surface to the nucleus (Nishida and Gotoh 1993; Chang and Karin, 2001). The cascade is initiated by the small G-protein Ras, which recruits Raf […], where activation occurs. Alternatively, this pathway can be activated by elevating intracellular cAMP.
Activation of the ERK pathway is essential in increased cell division and cell survival. Sustained and constitutive activation of the ERK pathway, however, has been linked to uncontrolled cell proliferation, increased cell survival, and tumor progression. Thus, the ERK has been as an attractive target for cancer chemotherapy in the past few years (Sebolt-Leopold and Herrera, 2004). Given its physiological and pathological importance, assessment of ERK phosphorylation has been broadly performed in both basic research and drug discovery. Most assays for the measurement of ERK phosphorylation use the antibody-based detection methods, such as western blot and ELISA. These assays require multiple reagent additions with cell wash steps and are not suitable for high throughout screening.
The current cell-based ERK phosphorylation assay was performed using AlphaScreen platform. AlphaScreen is a two bead-based proximity-dependent chemical energy transfer luminescent assay platform. The assay reagents (ERK SureFire(TM) kit) were supplied from TGR BioSciences (Australia). In the presence of specific antibodies, phosphorylated ERK will bring "donor" and "acceptor" beads to a proximity range (<200 nm), and subsequently lead a chemical luminescent reaction upon exciting donor beads with 680 nm laser. To exclude the assay-related false positives, we used a biotinylated rabbit IgG to perform counter-screen. The biotinylated antibody mimics the phosphorylated ERK1/2 for bringing streptavidin coated beads and protein-A coated beads to a proximity range for the AlphaScreen detection.
NCGC Assay Protocol Summary:
HEK293 cells stably expressing type-1 vasopressin receptor (V1b) were maintained in DMEM medium (Invitrogen, Carlsbad, CA) at 37C under a humidified atmosphere containing 5% CO2 and 95% air. The medium contained 10% FBS, 2 mM L-glutamine, non-essential amino acid, pyruvate and 50 U/ml penicillin and 50 ug/ml streptomycin (Invitrogen). The aliquots of frozen cells were stored at -135C and used for the compound screening. All compounds were screened as titrations from 0.6 nM to 46 uM final concentration. Vasopressin was used to stimulate the ERK phosphorylation pathway. The ERK phosphorylation in cells was determined using an AlphaScreen assay kit provided by PerkinElmer. Data were normalized to the controls for basal activity (DMSO only) and 100% activation (25 nM vasopressin). AC50 values were determined from concentration-response data modeled with the standard Hill equation.
(1) Seed 4 ul/well of resuspended frozen HEK293 cells containing 2000 cells in white 1536-well plates for overnight with 1% FBS at 37C under a humidified atmosphere containing 5% CO2 and 95% air.
(2) Add 23 nL compounds in DMSO solution. The final titration was 0.6 nM to 46 uM.
(3) Incubate at 37C for 30 min.
(4) Dispense 0.5uL vasopressin (25 nM in final)
(5) Incubate at 37C for 5 min.
(6) Dispense 0.5uL of 1:2 diluted 5x lysis buffer.
(7) Incubate at 37C for 10 min.
(8) Dispense 1.5uL of mixture of activation buffer and reaction buffer with AlphaScreen beads (streptavidin donor beads and protein-A acceptor beads, 10 ng/well for each).
(9) Incubate at room temperature for 5 hr.
(10) Detect the assay plate in an EnVision plate reader (PerkinElmer) using the AlphaScreen detection mode.
[…]
% is set by controls: 0 for no effect and ±100 for the full control effect; potency is the fitted concentration of half-maximal effect; tags give direction and shape of the fitted curve.

SMILES	Potency	activity, negative = inhibition
COc1cc2c(cc1NC(=O)CC1SC(N3CCCC3)=NC1=O)oc1ccccc12 (centres undefined)	inconclusive [inhibitor, partial curve]	
COc1ccc(C(=O)NC2=C(C#N)CCC2)cc1OC	inconclusive [inhibitor, full curve]	
O=C(NCc1ccco1)Nc1ccc2nsnc2c1		inactive: -17.1%
CN(C(=O)CCCOc1ccc2[nH]c(=O)ccc2c1)C1CCCCC1		inactive: -14.3%
S=C(c1ccc(-c2ccc(Cl)c(Cl)c2)o1)N1CCOCC1	inconclusive [inhibitor, partial curve]	
CN(C)c1ncnc2c1ncn2CCn1cnc2c(N(C)C)ncnc21	inconclusive [inhibitor, full curve, poor fit]	
O=c1c(-c2cccc(F)c2)nc2cncnc2n1Cc1ccc(F)cc1	inconclusive [inhibitor, partial curve]	
FC(F)(F)c1cc(CN2CC3(CCNCC3)C2)cc(C(F)(F)F)c1		inactive: -8.94%
COC(=O)c1c(-c2cccs2)csc1NC(=O)CN1CCOCC1	inconclusive [inhibitor, partial curve]	
COc1ccc(/C(N)=C/C(=O)C(C)(C)C)cc1	inconclusive [inhibitor, partial curve]	
O=C(NC1CCCC1)C(c1ccsc1)N(Cc1ccco1)C(=O)Cc1cccs1 (centres undefined)	inconclusive [inhibitor, single point]	
Cc1nn(Cc2ccccc2)c(C)c1NC(=O)c1cc(-c2ccc3c(c2)OCO3)on1	inconclusive [inhibitor, single point]	
COc1ccc(N(CC(=O)Nc2cccc(SC)c2)S(C)(=O)=O)cc1		inactive: -3.28%
CC(C)(C)NC(=O)NC(=O)COC(=O)COc1ccc2c(c1)CCC2		inactive: 10.5%
Cc1ccccc1-c1ccc2ncnc(N(C)Cc3ccco3)c2c1		inactive: -18.8%
CCOC(=O)c1c(N)sc(C(O)(C(F)(F)F)C(F)(F)F)c1-c1ccc(OC)cc1OC	inconclusive [inhibitor, partial curve]	
Nc1ccc(Cl)c(NC(=O)c2cccs2)c1	inconclusive [inhibitor, full curve, poor fit]	
COCC(=O)N1CCC2(CC1)CN(c1cccc(-c3ccccc3)c1)C2		inactive: -18.1%
C=CCNc1nc(N(c2ccccc2)c2ccccc2)nc(-n2ccnc2)n1	inconclusive [inhibitor, full curve]	
CCN(CC)C(=O)Oc1ccc2c(=O)c(-c3ccccc3)coc2c1	inconclusive [inhibitor, single point]	
Cc1cc(C(=O)CSc2nnnn2-c2ccccc2)c(C)n1CC1CCCO1 (centres undefined)		inactive: -3.86%
OC(COc1ccc2c(c1)CCC2)CN1CCN(c2ccccc2F)CC1 (centres undefined)	inconclusive [inhibitor, partial curve]	
Cc1onc(-c2ccccc2Cl)c1C(=O)NCc1nc(-c2ccccc2)no1	inconclusive [inhibitor, single point]	

SMILES	Potency	activity, negative = inhibition
CN1C(=O)CSc2ccc(NC(=O)Nc3ccccn3)cc21	inconclusive [inhibitor, partial curve]	
CCCn1c(=NC(C)=O)c(C(=O)OCC)cc2c(=O)n3ccccc3nc21	inconclusive [inhibitor, single point]	
CCCC(=O)O[C@]1(C(=O)CO)CCC2[C@@H]3CCC4=CC(=O)CC[C@]4(C)C3C(O)C[C@]21C (some centres undefined)	inconclusive [inhibitor, single point]	
CC(=NC1CCCCC1)C1=C(O)c2ccccc2C1=O	inconclusive [inhibitor, full curve, poor fit]	
Cc1c(C(=O)NCc2ccc3c(c2)OCO3)oc2ccc(S(=O)(=O)N3CCCC3)cc12	inconclusive [inhibitor, full curve]	
O=C(Cn1cnc2c(nnn2Cc2ccc(F)cc2)c1=O)N1CCCc2ccccc21	inconclusive [inhibitor, single point]	
Cc1cccc(-c2cc(=O)c3cc(Br)ccc3o2)c1	inconclusive [inhibitor, single point]	
CCCCc1oc2ccccc2c1C(=O)c1cc(I)c(OCCN(CC)CC)c(I)c1	inconclusive [inhibitor, partial curve]	
C[C@H]1CCCC=CC2C[C@H](OC(=O)CN(C)C)C[C@@H]2[C@@H](O)/C=C\C(=O)O1 (some centres undefined)		inactive: -4.81% [at 11.5 µM]
O=C(Nc1ccc(N2CCN(C(=O)c3ccccc3)CC2)c(Cl)c1)c1ccco1	inconclusive [inhibitor, single point]	
O=C(CCNS(=O)(=O)c1ccc2c(c1)CCC(=O)N2)NCc1ccc2c(c1)OCO2		inactive: 3.18%
Nc1nc2ccccc2n1/N=C/c1ccc(-c2ccccc2)o1	inconclusive [inhibitor, single point]	
CCCCn1nc(NC(=O)c2cccs2)c2cc3cc(OC)ccc3nc21		inactive: 80.8%
COc1cccc(Cn2c(=O)cnc3cnc(OC)nc32)c1	inconclusive [inhibitor, partial curve]	
O=C(Nc1nnc(COc2ccc(Cl)cc2)s1)C1CCCO1 (centres undefined)		inactive: -4.38%
CCCCN(CCCC)C(=O)CSc1nnc(-c2cc(OC)c(OC)c(OC)c2)o1	inconclusive [inhibitor, single point]	
COc1ccc(C2=NOC(C(=O)N3CCN(c4ccccc4OC)CC3)C2)cc1 (centres undefined)	inconclusive [inhibitor, partial curve]	
O=C(Cn1cnc2c(cnn2-c2ccc(F)cc2)c1=O)N1CCCc2ccccc21	inconclusive [inhibitor, single point]	
CCn1c(CC(=O)Nc2ccc(C)cc2)nnc1SCC(=O)N1CCN(c2ccccc2)CC1	inconclusive [inhibitor, single point]	
Cc1ccc2c(c1)NC(=O)C(CC(=O)NCCCN1CCCC1)O2 (centres undefined)		inactive: -7.61%
CCCOc1ccc2ccccc2c1/C=N/n1cnnc1		inactive: -26.8%
CCCCCn1c(N2CCN(Cc3ccccc3)CC2)nc2c1c(=O)[nH]c(=O)n2C	inconclusive [inhibitor, partial curve]	
CCCCCCN1CC(O)=C(c2nc3ccccc3[nH]2)C1=N		inactive: -16.8%

SMILES	Potency	activity, negative = inhibition
CCOC(=O)c1nnn(-c2nonc2OC)c1-c1ccccc1	inconclusive [inhibitor, full curve, poor fit]	
C[C@@]12C(=O)OC(=O)[C@@]1(C)[C@@H]1CC[C@@H]2O1		inactive: 0.784%
Cc1ccc(C23CC4CC(CC(NC(=O)N5CCN(C)CC5)(C4)C2)C3)cc1		inactive: -14%
COc1cc(C2c3c(n[nH]c3C)C(=O)N2c2ccc(Br)cc2)ccc1O (centres undefined)	inconclusive [inhibitor, partial curve]	
CCN(CC)CCOc1nc(C)nc2c1oc1ccccc12		inactive: -3.1%
O=C(CSc1nnc(-c2cccnc2)n1Cc1ccco1)Nc1nc(-c2ccc(F)cc2)cs1	inconclusive [inhibitor, single point]	
CCC(C)OC(=O)c1[nH]c2c(c1C)C(=O)CC(c1ccc(N(C)C)cc1)C2 (centres undefined)	inconclusive [inhibitor, partial curve]	
C[C@H](Cc1ccc(O)c(O)c1)[C@@H](C)Cc1ccc(O)c(O)c1	inconclusive [inhibitor, partial curve]	
Cc1ccc(NS(=O)(=O)c2ccc(NC(=O)c3ccc(Br)o3)cc2)c(C)c1	inconclusive [inhibitor, single point]	
C=CCn1c(SCC(=O)Nc2sccc2C(N)=O)nc2sc(C)c(C)c2c1=O		inactive: 10%
Cc1nc(NC2CCCCC2)c2nc(-c3ccccc3)n(CCN3CCCCC3)c2n1	inconclusive [inhibitor, full curve, poor fit]	
CCCOc1nc2c(c(=O)n(C)c(=O)n2C)n1Cc1cccc2ccccc12	inconclusive [inhibitor, single point]	
COc1ccccc1-c1nc(N2CCOCC2)c2ccccc2n1	inconclusive [inhibitor, partial curve, poor fit]	
CCc1ccc(CNc2ccc(N3CCN(C(C)=O)CC3)cc2)cc1	inconclusive [inhibitor, single point]	
O=C(OCCOc1ccccc1Cl)c1ccc(-n2cnnn2)cc1	inconclusive [inhibitor, single point]	
Cc1ccc(S(=O)(=O)N[C@@H](CCc2ccccc2)CC(=O)C(C)(C)C)cc1		inactive: 3.79% [at 11.5 µM]
Cc1ccc(S(=O)(=O)NC(=O)c2cc(C)n(CCCn3ccnc3)c2C)cc1		inactive: 3.35%
Cc1csc(SCC(=O)Nc2nc(-c3ccccc3)cs2)n1	inconclusive [inhibitor, partial curve]	
NCCc1ccc(O)c(O)c1	inconclusive [inhibitor, partial curve, poor fit]	
O=c1[nH]c2ccccc2n1CCCSc1cnc2ccccc2n1	inconclusive [inhibitor, single point]	
O=C(NC1CCCCC1)C1CCN(S(=O)(=O)N2CCCCCC2)CC1		inactive: -10.9%
Cc1ccc2cc(C(c3nnnn3CC3CCCO3)N3CCc4ccccc4C3)c(=O)[nH]c2c1 (centres undefined)	inconclusive [inhibitor, partial curve]	
CCC/C=C(\CCC)C(NS(=O)(=O)c1ccc(Cl)cc1)c1ccc(C(=O)OC)cc1 (centres undefined)		inactive: 52.4%

From PubChem BioAssay AID995 (National Center for Advancing Translational Sciences (NCATS), 2007)
